{"source": "paper PMC4336329", "about": "(PLoS ONE, 2015)", "note": "Hit rate of the full screen: of about 310,000 compounds, about 2,200 (0.71%) showed an effect of 50% or more. The effect is printed as a negative number. Some of the results follow.", "data": [{"target": "human ether-à-go-go-related gene (hERG) potassium channel (human, UniProt Q12809)", "sequence (Q12809 whole entry, looked up)": "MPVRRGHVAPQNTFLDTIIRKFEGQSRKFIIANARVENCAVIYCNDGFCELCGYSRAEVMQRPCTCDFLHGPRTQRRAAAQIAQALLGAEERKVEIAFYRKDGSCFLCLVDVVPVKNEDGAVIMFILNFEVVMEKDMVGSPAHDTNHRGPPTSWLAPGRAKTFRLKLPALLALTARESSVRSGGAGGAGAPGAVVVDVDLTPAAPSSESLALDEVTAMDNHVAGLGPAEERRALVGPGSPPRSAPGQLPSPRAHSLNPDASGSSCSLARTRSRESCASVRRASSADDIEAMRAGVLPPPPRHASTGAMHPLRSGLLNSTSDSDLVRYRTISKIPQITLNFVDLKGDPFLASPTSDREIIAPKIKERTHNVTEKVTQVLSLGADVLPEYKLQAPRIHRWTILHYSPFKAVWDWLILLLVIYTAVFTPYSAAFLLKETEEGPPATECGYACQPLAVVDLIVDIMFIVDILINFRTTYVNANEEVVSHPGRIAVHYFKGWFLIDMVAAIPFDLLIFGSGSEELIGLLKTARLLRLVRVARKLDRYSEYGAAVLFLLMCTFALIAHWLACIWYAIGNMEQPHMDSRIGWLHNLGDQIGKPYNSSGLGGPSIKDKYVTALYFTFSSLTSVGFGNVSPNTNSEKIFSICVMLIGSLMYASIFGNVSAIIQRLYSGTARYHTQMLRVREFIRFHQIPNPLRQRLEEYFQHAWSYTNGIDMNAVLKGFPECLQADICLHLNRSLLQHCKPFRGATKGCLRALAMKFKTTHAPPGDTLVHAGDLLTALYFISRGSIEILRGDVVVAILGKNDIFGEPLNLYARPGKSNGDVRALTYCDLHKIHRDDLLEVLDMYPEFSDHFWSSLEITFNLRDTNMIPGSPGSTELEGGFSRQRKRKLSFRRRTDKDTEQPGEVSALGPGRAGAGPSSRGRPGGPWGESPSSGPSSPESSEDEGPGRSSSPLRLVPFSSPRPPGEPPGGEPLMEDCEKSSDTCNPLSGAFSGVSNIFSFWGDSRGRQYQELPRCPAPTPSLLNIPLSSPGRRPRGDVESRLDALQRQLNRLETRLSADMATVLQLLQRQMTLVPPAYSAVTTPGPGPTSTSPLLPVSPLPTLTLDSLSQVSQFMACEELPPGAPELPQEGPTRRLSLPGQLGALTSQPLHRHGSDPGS", "test": "primary screen, population patch clamp on CHO cells stably expressing hERG", "units": {"hERG current change (%, negative = inhibition) at 1uM": "%"}, "values": [{"smiles": "O=S(=O)(NC1=NCCCCC1)c1ccc(Cl)cc1Cl", "hERG current change (%, negative = inhibition) at 1uM": 15.6}, {"smiles": "Cc1cnc(C(=O)OC(C)C(=O)Nc2ccccc2-c2ccccc2)cn1", "note": "(stereo not shown)", "hERG current change (%, negative = inhibition) at 1uM": 6.85}, {"smiles": "COc1ccc(CN(C(=O)c2cc3ccccc3oc2=O)C2CCS(=O)(=O)C2)cc1", "note": "(stereo not shown)", "hERG current change (%, negative = inhibition) at 1uM": 4.33}, {"smiles": "Cc1ccc(NC2c3ncccc3C(=O)N2Cc2cccs2)cc1C", "note": "(stereo not shown)", "hERG current change (%, negative = inhibition) at 1uM": 7.22}, {"smiles": "CCOc1ccc(N(C)Cc2cc(=O)oc3ccc(OC)cc23)cc1", "hERG current change (%, negative = inhibition) at 1uM": 11.4}, {"smiles": "C=CCc1cccc(Cl)c1OCCCNC1CCCC1.O=C(O)C(=O)O", "hERG current change (%, negative = inhibition) at 1uM": -0.107}, {"smiles": "Cc1cc(C)n(CCNS(=O)(=O)c2ccccc2)n1", "hERG current change (%, negative = inhibition) at 1uM": 12.8}, {"smiles": "O=S(=O)(CCN1CCOCC1)c1ccc(OC(F)(F)F)cc1", "hERG current change (%, negative = inhibition) at 1uM": 8.75}, {"smiles": "CC(=O)OC(C#CCN1CCOCC1)c1ccccc1", "note": "(stereo not shown)", "hERG current change (%, negative = inhibition) at 1uM": -0.843}, {"smiles": "NC(=O)c1ccccc1O", "hERG current change (%, negative = inhibition) at 1uM": 11.7}, {"smiles": "CCOC(=O)c1cnn(CCOC(=O)C(C)(C)C)c1NC(=O)C(C)(C)C", "hERG current change (%, negative = inhibition) at 1uM": 14.3}, {"smiles": "CS(=O)(=O)O.OC(c1cc(C(F)(F)F)nc2c(Cl)cc(Cl)cc12)C1CCCCN1", "note": "(stereo not shown)", "hERG current change (%, negative = inhibition) at 1uM": 10.7}, {"smiles": "Cc1ccc2nc(SCC(=O)Nc3ccc(F)cc3F)[nH]c2c1", "hERG current change (%, negative = inhibition) at 1uM": 12.9}, {"smiles": "CCCOC(=O)Nc1cccc(C(C)=O)c1", "hERG current change (%, negative = inhibition) at 1uM": 8.68}, {"smiles": "CCN(CC(=O)Nc1c(F)cccc1F)C(=O)C1CCN(c2ncnc3sc(C)c(C)c23)CC1", "hERG current change (%, negative = inhibition) at 1uM": -5.95}, {"smiles": "Cc1cc(Oc2ccc(C#N)cc2)nc(N2CCOCC2)n1", "hERG current change (%, negative = inhibition) at 1uM": 10}, {"smiles": "CN(C)S(=O)(=O)c1ccc(Cl)c(NC(=O)COC(=O)CNC(=O)c2ccco2)c1", "hERG current change (%, negative = inhibition) at 1uM": 13.1}, {"smiles": "COc1ccc(CCNC(=O)CSc2ccc3nnc(CCNC(=O)c4ccc(C)cc4)n3n2)cc1OC", "hERG current change (%, negative = inhibition) at 1uM": -0.914}, {"smiles": "CSc1ccccc1NC(=O)CSc1nnc(CNC(=O)c2ccccc2F)n1C", "hERG current change (%, negative = inhibition) at 1uM": 13.7}, {"smiles": "Cc1ccc2c(c1)N(C(=O)CCC(=O)NCCCN(C)Cc1ccccc1)CCO2", "hERG current change (%, negative = inhibition) at 1uM": -33.8}, {"smiles": "O=C(CSc1nnc(-c2ccccc2)n1-c1ccc(Cl)cc1)N/N=C/c1ccco1", "hERG current change (%, negative = inhibition) at 1uM": 5.86}, {"smiles": "CCCCOc1ccc(-c2nnc(-c3ccncc3)o2)cc1", "hERG current change (%, negative = inhibition) at 1uM": 11.1}, {"smiles": "COc1ccc(OCC(=O)N2CCN(S(=O)(=O)c3ccccc3[N+](=O)[O-])CC2)cc1", "hERG current change (%, negative = inhibition) at 1uM": 7.63}, {"smiles": "COc1cc(OC)c(OC)cc1CNC(=O)c1ccc(S(=O)(=O)N2CC(C)OC(C)C2)cc1", "note": "(stereo not shown)", "hERG current change (%, negative = inhibition) at 1uM": 5.78}, {"smiles": "O=c1cc2c(nn1Cc1ccccc1Cl)-c1ccccc1CC2", "hERG current change (%, negative = inhibition) at 1uM": 8.96}, {"smiles": "COc1ccc(CNc2nc(NC(C)=O)nn2-c2ccccc2)cc1", "hERG current change (%, negative = inhibition) at 1uM": 11.3}, {"smiles": "Cc1onc(-c2ccccc2Cl)c1C(=O)Nc1ccc(S(=O)(=O)Nc2nccs2)cc1", "hERG current change (%, negative = inhibition) at 1uM": 15.3}, {"smiles": "COc1ccc(NC(=O)C2CCN(S(=O)(=O)c3c(C)noc3C)CC2)cc1OC", "hERG current change (%, negative = inhibition) at 1uM": 10.6}, {"smiles": "COc1ccc2c(c1OC)C(=O)N1C2SC(C)(C)[C@H]1C(=O)NC(C)C", "note": "(stereo partly shown)", "hERG current change (%, negative = inhibition) at 1uM": 15.5}, {"smiles": "O=C(CCn1nc(-c2ccccc2)ccc1=O)N1CCN(c2ccccn2)CC1", "hERG current change (%, negative = inhibition) at 1uM": -14.4}, {"smiles": "O=c1c([N+](=O)[O-])c(N2CCCC2)c2ccccc2n1-c1ccccc1", "hERG current change (%, negative = inhibition) at 1uM": 4.99}, {"smiles": "COc1ccccc1C(=O)N1CC(=O)Nc2ccc(F)cc2C1c1ccccc1", "note": "(stereo not shown)", "hERG current change (%, negative = inhibition) at 1uM": 6.42}, {"smiles": "O=C(c1cnn2ccccc12)N1CCCc2ccccc21", "hERG current change (%, negative = inhibition) at 1uM": 5.5}, {"smiles": "Cc1nn(CC(=O)NCc2cccc3ccccc23)c(=O)c2ccccc12", "hERG current change (%, negative = inhibition) at 1uM": 11.4}, {"smiles": "Cc1ccc(NC(=O)c2ccco2)c(NC(=O)c2ccccc2C)c1", "hERG current change (%, negative = inhibition) at 1uM": 11.1}, {"smiles": "CCc1ccc(-c2cc(C(=O)N3N=C(C(F)F)CC3(O)C(F)F)c3ccccc3n2)cc1", "note": "(stereo not shown)", "hERG current change (%, negative = inhibition) at 1uM": -11.2}, {"smiles": "O=C1C=C(c2cccc(Cl)c2O)C[C@@H](c2ccc(Cl)cc2)C1", "hERG current change (%, negative = inhibition) at 1uM": -0.691}, {"smiles": "Cc1ccc(Cn2nnnc2CN2CCC(NC(=O)c3ccc(Br)cc3)CC2)cc1", "hERG current change (%, negative = inhibition) at 1uM": -16.3}, {"smiles": "CS(=O)(=O)N1CCCC(C(=O)Nc2ccccc2Cl)C1", "note": "(stereo not shown)", "hERG current change (%, negative = inhibition) at 1uM": 28.7}, {"smiles": "NC(=O)C1CCN(CC(=O)NCc2ccccc2)CC1", "hERG current change (%, negative = inhibition) at 1uM": 12.9}, {"smiles": "O=C(CSc1nc2ccccc2c(=O)[nH]1)c1cccs1", "hERG current change (%, negative = inhibition) at 1uM": 7.16}, {"smiles": "COc1ccc(-n2c(O)c(/C=N/NS(=O)(=O)c3ccc(C)cc3)c3ccccc3c2=O)cc1OC", "hERG current change (%, negative = inhibition) at 1uM": 3.33}, {"smiles": "COc1ccc(N(C(=O)c2ccco2)S(=O)(=O)c2cc(OC)ccc2OC)cc1", "hERG current change (%, negative = inhibition) at 1uM": 3.95}, {"smiles": "Cn1c(=O)oc2cc(S(=O)(=O)N3CCCC(C(=O)Nc4ccc5c(c4)OCCO5)C3)ccc21", "note": "(stereo not shown)", "hERG current change (%, negative = inhibition) at 1uM": 1.2}, {"smiles": "CC(C)C(=O)Nc1ccc2nn(-c3ccc(F)cc3)nc2c1", "hERG current change (%, negative = inhibition) at 1uM": 2.13}, {"smiles": "COc1ccc(/C=C2\\SC(=O)N(CCc3nnc(N)s3)C2=O)cc1", "hERG current change (%, negative = inhibition) at 1uM": -1.81}, {"smiles": "O=C(CCc1nc(-c2ccccc2F)no1)NC1CCN(Cc2ccccc2)CC1", "hERG current change (%, negative = inhibition) at 1uM": -12.2}, {"smiles": "O=C(Nc1ccc(N2CCCC2)cc1)c1cccc(Cl)c1Cl", "hERG current change (%, negative = inhibition) at 1uM": 18.8}, {"smiles": "CN=CC1=C(O)C(C(=O)OC)C(C)(C)CC1=O", "note": "(stereo not shown)", "hERG current change (%, negative = inhibition) at 1uM": 15.8}, {"smiles": "O=C(C1CCCN(Cc2ccccc2[N+](=O)[O-])C1)N1CCCC1.O=C(O)C(=O)O", "note": "(stereo not shown)", "hERG current change (%, negative = inhibition) at 1uM": 9.26}, {"smiles": "Cc1csc(NC(=O)c2cccc(S(=O)(=O)N3CCCCC3)c2)n1", "hERG current change (%, negative = inhibition) at 1uM": 12.4}, {"smiles": "NC(=O)C1CCN(C2CC(=O)N(c3ccc(F)c(Cl)c3)C2=O)CC1", "note": "(stereo not shown)", "hERG current change (%, negative = inhibition) at 1uM": 1.29}, {"smiles": "C=CCn1c(SCC(=O)NCc2ccco2)nc2sc(C)c(C)c2c1=O", "hERG current change (%, negative = inhibition) at 1uM": 12.1}, {"smiles": "N#CCC(=O)N1CCCCCC1", "hERG current change (%, negative = inhibition) at 1uM": -5.22}, {"smiles": "Cc1cc(OCC(=O)N(C)c2c(N)n(Cc3ccccc3)c(=O)[nH]c2=O)c(C(C)C)cc1Cl", "hERG current change (%, negative = inhibition) at 1uM": 6.68}]}]}
